This note sets out measurements from paper PMC4336329 (PLoS ONE, 2015).

The campaign covered roughly 310,000 compounds. About 14,000 (4.5%) showed an effect of 50% or more. Effects have a minus sign here. Some of the results follow.
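Also: peak tail current of the secondary pulse compared with the same well before compound.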

For this experiment, the target named is human ether-à-go-go-related gene (hERG) potassium channel (human, UniProt Q12809). As to the kind of experiment: primary screen, population patch clamp on CHO cells stably expressing hERG.
Sequence of human ether-à-go-go-related gene (hERG) potassium channel (Q12809 whole entry, looked up): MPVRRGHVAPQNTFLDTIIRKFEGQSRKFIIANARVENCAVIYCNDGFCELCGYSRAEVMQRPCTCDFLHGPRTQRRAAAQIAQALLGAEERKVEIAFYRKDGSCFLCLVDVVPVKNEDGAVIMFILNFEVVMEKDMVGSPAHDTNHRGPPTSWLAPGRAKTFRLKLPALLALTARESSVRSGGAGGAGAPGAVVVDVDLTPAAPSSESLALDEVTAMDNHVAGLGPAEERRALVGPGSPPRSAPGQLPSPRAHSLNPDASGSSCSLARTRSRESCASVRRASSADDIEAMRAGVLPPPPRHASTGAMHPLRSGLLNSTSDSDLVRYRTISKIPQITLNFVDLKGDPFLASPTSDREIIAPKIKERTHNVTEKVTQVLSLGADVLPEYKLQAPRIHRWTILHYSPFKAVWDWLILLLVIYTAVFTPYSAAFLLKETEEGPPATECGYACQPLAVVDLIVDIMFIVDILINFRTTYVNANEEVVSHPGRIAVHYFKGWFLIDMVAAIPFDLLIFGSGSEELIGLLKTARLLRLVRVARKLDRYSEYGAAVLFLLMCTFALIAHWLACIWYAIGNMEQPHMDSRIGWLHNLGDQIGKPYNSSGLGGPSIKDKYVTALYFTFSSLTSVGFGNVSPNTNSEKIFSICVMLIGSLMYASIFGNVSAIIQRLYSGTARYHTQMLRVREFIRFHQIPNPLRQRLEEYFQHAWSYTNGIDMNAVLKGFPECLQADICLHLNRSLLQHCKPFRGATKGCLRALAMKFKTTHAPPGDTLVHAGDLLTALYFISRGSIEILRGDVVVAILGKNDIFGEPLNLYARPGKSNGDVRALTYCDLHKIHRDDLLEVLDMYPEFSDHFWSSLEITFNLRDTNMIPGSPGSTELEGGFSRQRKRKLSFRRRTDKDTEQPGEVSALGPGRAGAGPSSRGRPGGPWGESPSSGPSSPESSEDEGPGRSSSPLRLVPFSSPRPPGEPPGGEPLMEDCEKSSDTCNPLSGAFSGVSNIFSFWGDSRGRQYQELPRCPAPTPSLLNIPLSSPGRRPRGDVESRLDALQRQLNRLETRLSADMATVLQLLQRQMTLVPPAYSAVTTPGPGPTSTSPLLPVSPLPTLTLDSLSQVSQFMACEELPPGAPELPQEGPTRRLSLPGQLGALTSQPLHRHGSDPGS
On to `COc1ccc(-c2ccccc2)cc1NC(=O)c1ccncc1`, for which the “hERG current change (%, negative = inhibition) at 10uM” value is on record as -13.7%. The value for `COc1ccc2c(c1)c1ncn(Cc3ccc(F)cc3)c(=O)c1n2C` was 20.8%. The same measure for `CCCN1C(=O)/C(=c2\s/c(=C3\C=Cc4ccccc4N3CC)c(=O)n2-c2ccccc2)SC1=S`: 8.95%. The value for `Cc1nc2sc(-c3ccccc3)cc2c(=O)n1/N=C/N(C)C` was -0.737%; that for `Cc1ccc(Cl)cc1NC(=O)COC(=O)c1ccc(COc2ccc3c(C)cc(=O)oc3c2)cc1` was 8.58%; that for `COc1ccc(/C(C)=C2\SC(=S)N(CCC(=O)O)C2=O)cc1` was 7.7%. Regarding `CCOc1cc(C2C3=C(CC(C)(C)CC3=O)OC3=C2C(=O)CC(C)(C)C3)cc([N+](=O)[O-])c1O`, the “hERG current change (%, negative = inhibition) at 10uM” value was -11.9%. As for `CCOC(=O)c1cc2c(cn1)[nH]c1ccccc12`, the “hERG current change (%, negative = inhibition) at 10uM” value is on record as -3.84%. Consider `COc1ccccc1/C=C/c1nc2ccc(OC(C)=O)cc2c(=O)o1`, for which the “hERG current change (%, negative = inhibition) at 10uM” value was 11.9%.

Turning to `COc1ccc(S(=O)(=O)c2c(O)c3ccc(C(=O)Nc4ccccc4Cl)cc3[nH]c2=O)cc1`, the “hERG current change (%, negative = inhibition) at 10uM” value amounted to 5.81%. The value for `C=CCn1c(SCc2nc3ccccc3[nH]2)nnc1-c1cccc(OC)c1` was -12.2%; that for `CCOC(=O)c1ccc(NC(=O)c2nc(SC)ncc2Cl)cc1` was 12.6%; that for `Cc1cc(NC(=O)c2ccccc2F)nc2c1c(=O)oc1ccccc12` was 15.1%. The value for `CCOc1ccc(C(F)(F)F)cc1NC(=O)COc1ccc(C(F)(F)F)cc1[N+](=O)[O-]` was 21.5%; that for `NC(=NCCc1ccc(Cl)cc1)NS(=O)(=O)c1ccc(F)cc1` was 6.7%. The same measure for `Cc1cc(C)n2cc(CSc3nnc(-c4ccccc4)o3)nc2n1`: -38.3%.

For `CCN(CC)C(=O)C1CCCN(Cc2nc(-c3cccs3)no2)C1` (stereo not drawn), the “hERG current change (%, negative = inhibition) at 10uM” value was 0.945%. The value for `Cc1cc(=O)oc2c(C)c(OC3CCCCC3=O)ccc12` (stereo not drawn) was 13.8%; that for `CC(C)CCNC(=O)CCCc1ccccc1` was 14.5%; that for `COc1ccc(F)cc1C(=O)C1CCCN(Cc2ccc(Oc3ncccn3)cc2)C1` (stereo not drawn) was -64.2%.

Take `O=C(NNc1cccc(Cl)n1)Nc1ccccc1Cl`: the “hERG current change (%, negative = inhibition) at 10uM” value is 20.9%. The same measure for `CC(=O)n1nc(-c2cccnc2)nc1NCc1cccs1`: -8.03%; for `O=C(N/N=C/c1ccc([N+](=O)[O-])o1)c1cc(-c2cccc(Br)c2)nc2ccccc12`: 4.18%; for `N#Cc1c(-c2ccccc2)[nH]c(=S)[nH]c1=O`: 17.1%. The value for `CC(C)CSc1ncc(-c2cccc(C(F)(F)F)c2)cn1` was -7.1%; that for `Cc1ccc(N)c(C(=O)c2ccccc2)c1` was -18.7%; that for `COc1ccc2cc(C(=O)Nc3ccc(Cl)cc3)sc(=O)c2c1OC` was 7.97%.

Take `Cc1nc2c(C)cccc2cc1C(=O)N/N=C/c1ccc(C(=O)O)cc1`: the “hERG current change (%, negative = inhibition) at 10uM” value is 26.1%.

Take `CCC(CC)NC(=O)c1ccc2nc[nH]c2c1`: the “hERG current change (%, negative = inhibition) at 10uM” value is listed as 4.63%. Take `CC(C)Sc1n[nH]c(=O)n1-c1ccccc1`: the “hERG current change (%, negative = inhibition) at 10uM” value is recorded as 7.72%. Take `O=C(O)CC1(c2ccccc2)C(=O)c2ccccc2C1=O`: the “hERG current change (%, negative = inhibition) at 10uM” value turned out to be 16.9%. The value for `COc1ccc(S(=O)(=O)N2CCCCC2)cc1NC(=O)CN(C)C1CCCCC1` was -8.17%. The value for `COc1ccccc1/C=C1\SC(N2CCC(C)CC2)=NC1=O` was -14.5%; that for `Cc1c(NC2=NC3(CCCCC3)Cc3ccccc32)c(=O)n(C)n1-c1ccccc1` was -29.8%. The value for `COc1cccc(C(=O)Nc2cc(NC(=O)c3cccs3)ccc2C)c1OC` was -14%; that for `CC(C)C(OC(=O)CCC(=O)Nc1nccs1)C(=O)NC1CCCCC1` (stereo not drawn) was 12.3%.

As to `CCCCCC1CCC(C(=O)NCCN2CCOCC2)CC1` (stereo not drawn), the “hERG current change (%, negative = inhibition) at 10uM” value is reported as 6.86%. The value for `CCCCCn1c(CN2CCN(CCO)CC2)nc2c1c(=O)n(C)c(=O)n2C` was -17.9%; that for `COc1ccc2nc(SCC(=O)NC3(C#N)CCCCC3)[nH]c2c1` was 5.77%; that for `COc1ccc(S(=O)(=O)N2Cc3ccccc3CC2C(=O)Nc2nccs2)cc1` (stereo not drawn) was -20.7%. The value for `CCOC(=O)N1CCN(C(=O)CS(=O)Cc2nc(-c3ccc(C)cc3)oc2C)CC1` (stereo not drawn) was 0.278%; that for `Cl.O=C(CCN1CCC(c2ccccc2)C1)c1cccs1` (stereo not drawn) was -33.8%. Take `CN(C)c1ccc([N+](=O)[O-])cc1C(=O)NCC(c1ccco1)N(C)C` (stereo not drawn): the “hERG current change (%, negative = inhibition) at 10uM” value came to 5.26%.

Take `Cc1ccc(C(=O)N/N=C/c2cccc3ccccc23)cn1`: the “hERG current change (%, negative = inhibition) at 10uM” value is on record as -12%. In the case of `CC1CCN(c2nncc3ccccc23)CC1`, the “hERG current change (%, negative = inhibition) at 10uM” value is on record as -5.35%. The same measure for `O=C1CN(C(=O)c2ccccc2F)C(c2ccccc2)c2cc(Cl)ccc2N1` (stereo not drawn): -36.5%; for `CCOc1ccccc1NC(=O)C1CCN(C(=O)C2CC(=O)N(c3ccc(C)cc3)C2)CC1` (stereo not drawn): -13.2%. The value for `COc1ccc(CNc2cc(C)ccn2)cc1` was 2.79%. The value for `CC(/C=C/c1ccc2c(c1)OCO2)=N/NC(=O)c1cccnc1` was 2.82%; that for `Cc1nc2ccccc2c(=O)n1NC(=O)c1ccccc1[N+](=O)[O-]` was 6.04%.

On to `O=C(Cc1ccccc1)Nc1cc(Cl)ccc1Sc1ccccc1`, for which the “hERG current change (%, negative = inhibition) at 10uM” value is on record as 6.6%.

With `O=C(CSc1ccccc1C(=O)O)NCc1ccco1`, the “hERG current change (%, negative = inhibition) at 10uM” value came out at 12.8%. The value for `O=C(Nc1ccccc1C(F)(F)F)N1CCN(c2ccccn2)CC1` was 9.98%; that for `Cc1ccc(CNC(=O)[C@H](C)N2C(=O)N3CCc4c([nH]c5ccccc45)[C@@]3(C)C2=O)cc1` was 11.5%. The value for `Cn1cc(S(=O)(=O)N2CCN(C(=O)c3ccco3)CC2)c(=O)n(C)c1=O` was -6.81%; that for `COc1cccc(-n2c(SCC(=O)NCc3cccs3)nc3ccccc3c2=O)c1` was -2.74%. The same measure for `CCC12CN3CC(CC)(CN(C1)C31C(=O)N(C)c3ccc(C)cc31)C2=O` (stereo not drawn): 19.4%.
